Measured values published in article PMC4059916.
Results are given in words; binding and its absence hold for the method and conditions named. Some results given as binding are weak or reduced against the parent protein; the word gives no strength.

Protein sequences, listed by entry. Tags and fused reporters are not part of them. Residues count along the entry.
UniProt Q4G0F5: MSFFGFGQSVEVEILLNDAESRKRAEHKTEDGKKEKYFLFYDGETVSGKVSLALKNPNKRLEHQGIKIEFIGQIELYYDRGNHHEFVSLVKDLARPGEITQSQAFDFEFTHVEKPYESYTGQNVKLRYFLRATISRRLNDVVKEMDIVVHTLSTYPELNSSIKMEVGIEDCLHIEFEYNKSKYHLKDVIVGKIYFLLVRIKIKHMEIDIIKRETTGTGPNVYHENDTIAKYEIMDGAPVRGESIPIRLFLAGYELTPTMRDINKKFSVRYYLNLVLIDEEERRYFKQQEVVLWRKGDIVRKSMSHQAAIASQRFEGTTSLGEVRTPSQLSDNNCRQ
UniProt P51809, residues 2-188: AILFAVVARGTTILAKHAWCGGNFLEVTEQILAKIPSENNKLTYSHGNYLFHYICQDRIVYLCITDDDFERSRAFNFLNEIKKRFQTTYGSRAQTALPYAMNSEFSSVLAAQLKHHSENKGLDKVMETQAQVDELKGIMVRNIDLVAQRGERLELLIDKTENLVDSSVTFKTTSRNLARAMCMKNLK

Assays:
[1] = biological target: VARP1-1050His10, wild type (human) (UniProt Q96NW4); assay: pull-down; GST-VPS29 or GST as bait with combinations of VARP-His10, Rab32 and VAMP7 cytoplasmic domain; samples western blotted for Rab32 and VAMP7; both purified
[2] = biological target: BD-VPS26B (yeast two-hybrid) (UniProt Q4G0F5); assay: two-hybrid; pGBT9 (BD) and pGAD-C (AD) vectors, HF7c reporter strain; growth on plates lacking histidine indicates interaction

| binding [1] | binding [2] | Substance |
| --- | --- | --- |
| binds | – | VAMP7 cytoplasmic domain (CD) (from UniProt P51809 2-188) (domain or fragment) |
| – | no binding | AD-VARP, full length (yeast two-hybrid) (from UniProt Q96NW4 1-1050) |
